In US20210275641A1 (SYNTHEKINE, published 2021):

T1: human high affinity trimeric IL-2 receptor (CD25/CD122/CD132) (human, UniProt P01589 22-272; P14784 27-551; P31785 23-369)
T1 sequence 1: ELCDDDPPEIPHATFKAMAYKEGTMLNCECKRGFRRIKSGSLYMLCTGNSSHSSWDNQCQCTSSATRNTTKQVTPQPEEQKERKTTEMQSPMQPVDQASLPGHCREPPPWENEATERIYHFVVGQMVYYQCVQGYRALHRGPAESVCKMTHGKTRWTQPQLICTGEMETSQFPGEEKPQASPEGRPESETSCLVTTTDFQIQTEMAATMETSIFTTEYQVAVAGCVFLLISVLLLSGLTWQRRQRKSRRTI
T1 sequence 2: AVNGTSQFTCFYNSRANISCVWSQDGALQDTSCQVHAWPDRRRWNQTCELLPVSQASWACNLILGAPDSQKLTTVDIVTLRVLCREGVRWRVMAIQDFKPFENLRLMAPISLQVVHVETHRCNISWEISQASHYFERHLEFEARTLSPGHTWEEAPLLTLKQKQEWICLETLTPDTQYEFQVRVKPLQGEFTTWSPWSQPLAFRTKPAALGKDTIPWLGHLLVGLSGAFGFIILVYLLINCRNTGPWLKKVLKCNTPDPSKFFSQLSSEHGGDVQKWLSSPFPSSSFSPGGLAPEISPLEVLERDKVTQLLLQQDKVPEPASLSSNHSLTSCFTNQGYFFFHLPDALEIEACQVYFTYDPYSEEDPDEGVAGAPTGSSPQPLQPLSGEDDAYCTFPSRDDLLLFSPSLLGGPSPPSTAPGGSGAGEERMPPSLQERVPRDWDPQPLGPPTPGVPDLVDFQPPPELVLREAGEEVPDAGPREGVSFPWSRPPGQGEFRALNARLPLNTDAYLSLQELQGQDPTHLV
T1 sequence 3: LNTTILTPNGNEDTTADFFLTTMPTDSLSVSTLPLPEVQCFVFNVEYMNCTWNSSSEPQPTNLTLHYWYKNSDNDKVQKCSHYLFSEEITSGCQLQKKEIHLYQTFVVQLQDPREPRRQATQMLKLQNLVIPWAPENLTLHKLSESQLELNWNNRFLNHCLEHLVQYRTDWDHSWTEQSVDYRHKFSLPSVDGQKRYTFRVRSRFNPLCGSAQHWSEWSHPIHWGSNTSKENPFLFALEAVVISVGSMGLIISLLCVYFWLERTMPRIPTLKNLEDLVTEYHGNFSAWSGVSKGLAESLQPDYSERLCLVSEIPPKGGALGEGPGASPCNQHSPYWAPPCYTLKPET


molecular target: T1, human high affinity trimeric IL-2 …; assay: cell-based or functional assay

Row | Binder | pSTAT5 ratio YT CD25/YT, dilution factor 2, upper table | pSTAT5 ratio YT CD25/YT, dilution factor 4, upper table | pSTAT5 ratio YT CD25/YT, dilution factor 8, upper table | pSTAT5 ratio YT CD25/YT, dilution factor 16, upper table | pSTAT5 ratio YT CD25/YT, dilution factor 32, upper table | pSTAT5 ratio YT CD25/YT, dilution factor 64, upper table | pSTAT5 ratio YT CD25/YT, dilution factor 128, upper table
1 | huIL2 L18R (R--) (ligand) cytokine: not shown | 0.8 | 0.9 | 1 | 1 | 1.1 | 1.4 | 2.7
2 | huIL2 Q126H (--H) (ligand) cytokine: not shown | 0.8 | 0.9 | 0.9 | 1 | 1.1 | 1.2 | 2

Second part, the binder after the results:

Row | pSTAT5 ratio YT CD25/YT, dilution factor 2, upper table | pSTAT5 ratio YT CD25/YT, dilution factor 4, upper table | pSTAT5 ratio YT CD25/YT, dilution factor 8, upper table | pSTAT5 ratio YT CD25/YT, dilution factor 16, upper table | pSTAT5 ratio YT CD25/YT, dilution factor 32, upper table | pSTAT5 ratio YT CD25/YT, dilution factor 64, upper table | pSTAT5 ratio YT CD25/YT, dilution factor 128, upper table | Binder
3 | 1 | 1.2 | 1.5 | 2.3 | 4.2 | 6.7 | 10.7 | huIL2 V91K (ligand) cytokine: not shown
4 | 0.8 | 0.9 | 0.9 | 1 | 1 | 1.3 | 2 | huIL2 Q22E (-E-) (ligand) cytokine: not shown
